The supplement of paper PMC4723716
± gives the uncertainty stated by the source. Over roughly 9,900 compounds, “viability index relative to DMSO control” has its median near 1; the lowest 2% begin near 0.85. Some of the results follow.

tested on: Plasmodium falciparum NF54 stage V gametocytes; experiment: viability index relative to DMSO control (fraction); higher = less gametocyte killing; conditions: 2.5 µM, library set: Broad Institute DOS, incubation time: 72 h
Outline: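 Viability index is the count of red-stained particles in a well divided by the plate mean of solvent-only wells. Particles of 20–70 µm2 were counted in one imaged field per well after one to two hours with 3 µl of 2.5 µM MitoTracker Red CMXRos and 0.13% saponin. Before staining, P. falciparum NF54 stage V gametocytes in serum-free medium (0.75% gametocytemia, 1.25% hematocrit, 10 µl, 1,536-well plates) were kept with compound at 2.5 µM for 72 hr at 37°C under low oxygen.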

| Compound | viability index |
| --- | --- |
| CC(C)NC(=O)N(C)C[C@H]1Oc2c(NS(=O)(=O)c3cccs3)cccc2C(=O)N([C@H](C)CO)C[C@@H]1C | 1.03 ± 0.12 |
| CCCNC[C@H]1[C@@H](c2ccc(-c3cccc(C#N)c3)cc2)[C@@H](CO)N1C(C)=O | 0.997 ± 0.1 |
| CNC[C@@H]1OCCCC[C@@H](C)Oc2ccc(NS(=O)(=O)c3ccc(F)cc3)cc2C(=O)N([C@H](C)CO)C[C@H]1C | 1.021 ± 0.0045 |
| COc1ccccc1NC(=O)N1[C@H](C#N)[C@@H](c2ccccc2)[C@@H]1CO | 1.07 ± 0.021 |
| O=C(Nc1ccc(C(F)(F)F)cc1)Nc1ccc2c(c1)[C@@H]1C[C@@H](CC(=O)N3CCc4ccccc4C3)O[C@H](CO)[C@@H]1O2 | 0.881 ± 0.037 |
| O=C(NC[C@H]1[C@@H](c2ccccc2)[C@H](CO)N1C(=O)Cc1ccncc1)C1CCC1 | 0.951 ± 0.055 |
| CNC(=O)C[C@H]1CC[C@@H]2[C@H](COC[C@@H](O)CN2Cc2ccccc2F)O1 | 1.07 ± 0.021 |
| Cc1noc(C)c1S(=O)(=O)N(C)C[C@@H]1OCCCC[C@@H](C)Oc2ccc(NC(=O)CCC(F)(F)F)cc2C(=O)N([C@@H](C)CO)C[C@H]1C | 1.03 ± 0.085 |
| CC(=O)N1CC2(C1)[C@H](c1ccc(-c3cccc(C#N)c3)cc1)[C@@H](CO)N2CCC(F)(F)F | 1.1 ± 0.046 |
| CO[C@H]1CN(C)C(=O)c2ccc(NC(=O)Nc3ccccc3Cl)cc2OC[C@H](C)NC[C@H]1C | 0.9328 ± 0.0039 |
| Cc1noc(C)c1NC(=O)N(C)C[C@@H]1Oc2cc(C#CCN(C)C)ccc2S(=O)(=O)N([C@H](C)CO)C[C@@H]1C | 1.06 ± 0.048 |
| COc1cccc(C(=O)Nc2ccc3c(c2)C(=O)N(C)[C@H]2CC[C@@H](CC(=O)N[C@H](C)c4ccccc4)O[C@@H]2CO3)c1 | 1.15 ± 0.093 |
| CCS(=O)(=O)Nc1ccc2c(c1)C(=O)N(C)C[C@H](OC)[C@@H](C)CN(CC1CCCCC1)[C@@H](C)CO2 | 0.952 ± 0.036 |
| C/C=C/c1ccc2n(c1=O)C[C@@H]1[C@@H](CO)[C@H](C(=O)N[C@@H](C)c3ccccc3)[C@H]2N1Cc1cncnc1.C/C=C\c1ccc2n(c1=O)C[C@@H]1[C@@H](CO)[C@H](C(=O)N[C@@H](C)c3ccccc3)[C@H]2N1Cc1cncnc1 | 1.06 ± 0.037 |
| O=C(C[C@H]1CC[C@@H]2[C@H](COC[C@@H](O)CN2CCc2ccccc2)O1)NCCCN1CCOCC1 | 1.07 ± 0.054 |
| CNC[C@H]1Oc2c(N)cccc2C(=O)N([C@@H](C)CO)C[C@@H]1C | 0.962 ± 0.015 |
| C[C@H](NC(=O)[C@@H]1[C@@H](CO)[C@@H]2Cn3c(cccc3=O)[C@@H]2N1CCC(F)(F)F)c1ccccc1 | 1.02 ± 0.056 |
| CO[C@@H]1CN(C)C(=O)c2ccc(NC(=O)NC3CCCCC3)cc2OC[C@@H](C)N(CCc2ccccc2)C[C@H]1C | 0.984 ± 0.083 |
| CN1C(=O)c2cc(NC(=O)C3CCOCC3)ccc2OC[C@H]2O[C@@H](CC(=O)NCc3ccccc3F)CC[C@@H]21 | 1.05 ± 0.062 |
| C[C@H]1CCCCO[C@@H](CN(C)C(=O)Nc2ccc3c(c2)OCO3)[C@@H](C)CN([C@@H](C)CO)C(=O)c2cc(NS(=O)(=O)c3ccc(F)cc3)ccc2O1 | 0.98 ± 0.064 |
| O=C(O)C[C@H]1C[C@@H]2c3cc(NC(=O)Nc4ccc(C(F)(F)F)cc4)ccc3O[C@@H]2[C@H](CO)O1 | 1.07 ± 0.011 |
| C[C@@H]1CCCCO[C@H](CN(C)S(=O)(=O)c2cn(C)cn2)[C@H](C)CN([C@@H](C)CO)C(=O)c2cc(N(C)C)ccc2O1 | 1.08 ± 0.024 |
| C[C@@H]1CN([C@H](C)CO)S(=O)(=O)c2ccc(-c3cncnc3)cc2O[C@@H]1CN(C)C(=O)NC1CCCC1 | 1.07 ± 0.054 |

| Compound | viability index |
| --- | --- |
| COc1ccccc1C#Cc1ccc([C@@H]2[C@@H](CO)N(C(=O)C3CCC3)[C@H]2C#N)cc1 | 1.06 ± 0.047 |
| O=C(C[C@H]1CC[C@H]2NC[C@@H](O)COC[C@@H]2O1)NC1Cc2ccccc2C1 | 1.01 ± 0.084 |
| CCCNC(=O)N1CC2(C1)[C@@H](c1ccccc1)[C@H](CO)N2CC1CCOCC1 | 1.0932 ± 0.001 |
| O=C(CN1CCOCC1)N1CC(=O)N2[C@H](C1)[C@@H](c1ccc(-c3cccc(F)c3)cc1)[C@@H]2CO | 0.984 ± 0.086 |
| O=C1C[C@@H](c2ccccc2)C(=O)N[C@H](c2ccccc2)C/C=C\C[C@@H](c2ccccc2)N1 | 1.13 ± 0.049 |
| C[C@H](CO)N1C[C@H](C)[C@@H](CN(C)CC2CC2)OCCCC[C@H](C)Oc2ccc(NC(=O)c3ccccc3)cc2C1=O | 1.07 ± 0.02 |
| C[C@H]1CN([C@@H](C)CO)C(=O)c2cc(NC(=O)C3CCCCC3)ccc2O[C@H]1CN(C)Cc1ccc2c(c1)OCO2 | 1.04 ± 0.021 |
| COCC#Cc1ccc([C@H]2[C@H]3CN(C(=O)C4CCCCC4)CC(=O)N3[C@H]2CO)cc1 | 1.01 ± 0.034 |
| C/C=C/c1ccc([C@@H]2[C@@H](CO)N[C@@H]2CN(CC)C(=O)CN2CCOCC2)cc1 | 1.03 ± 0.091 |
| C/C=C/c1ccc([C@H]2[C@H]3CNC[C@@H]2N3C(=O)Nc2ccc3c(c2)OCO3)cc1 | 1.05 ± 0.093 |
| CN(C)C(=O)c1ccc(-c2ccc([C@H]3[C@@H](CO)N4C(=O)CN(C(=O)CC5CC5)C[C@@H]34)cc2)cc1 | 0.927 ± 0.014 |
| C[C@@H]1CCCCO[C@@H](CN(C)S(=O)(=O)c2ccc(Cl)cc2)[C@@H](C)CN([C@@H](C)CO)C(=O)c2cc(NC(=O)Nc3ccc(C(F)(F)F)cc3)ccc2O1 | 1.06 ± 0.058 |
| COc1ccccc1-c1ccccc1[C@H]1[C@@H](C#N)N(C(=O)CN(C)C)[C@H]1CO | 1.18 ± 0.022 |
| COc1ccc2c3c([C@H](CO)N(Cc4cc(F)ccc4F)C[C@]33CN(C3)C(=O)C3CC3)n(C)c2c1 | 1.01 ± 0.079 |
| CN1C(=O)c2cc(NC(=O)Nc3ccc(Cl)cc3)ccc2OC[C@@H]2O[C@H](CC(=O)NCCN3CCCCC3)CC[C@@H]21 | 0.945 ± 0.017 |
| COc1ccc2c3c([C@@H](CO)N(CC4CC4)C[C@]33CN(C3)C(=O)c3ccc4OCOc4c3)n(C)c2c1 | 1.02 ± 0.016 |
| CC(C)CC#Cc1ccc([C@H]2[C@H]3CN(C(=O)Nc4ccccc4)CCCCN3[C@H]2CO)cc1 | 0.99 ± 0.061 |
| COc1ccc2c3c([C@H](CO)NC[C@]33CN(C3)C(=O)CC3CC3)n(C)c2c1 | 1.09 ± 0.054 |
| CCCC#Cc1ccc([C@H]2[C@H](CO)N3C(=O)CN(S(=O)(=O)c4ccccc4C)C[C@@H]23)cc1 | 1 ± 0.085 |
| O=C(C1CCOCC1)N1CC(=O)N2[C@@H](CO)[C@@H](c3ccc(C#CCc4ccccc4)cc3)[C@@H]2C1 | 1.09 ± 0.065 |
| CO[C@@H]1CC[C@@H]2CCOc3ccc(C#N)cc3C(=O)N(C)[C@H](C)C(=O)N(C)C[C@@H]1O2 | 1.07 ± 0.014 |
| O=C(Cc1cccnc1)N1CC(=O)N2[C@H](C1)[C@H](c1ccc(/C=C/c3ccccc3)cc1)[C@@H]2CO | 0.926 ± 0.038 |
| CCc1cnc(N2[C@H](C#N)[C@H](c3ccc(-c4cccc(F)c4)cc3)[C@H]2CO)s1 | 1.12 ± 0.018 |

| Compound | viability index |
| --- | --- |
| C[C@@H]1CCCCO[C@H](CN(C)C(=O)Nc2ccc3c(c2)OCO3)[C@H](C)CN([C@@H](C)CO)C(=O)c2cc(NS(=O)(=O)c3ccc(F)cc3)ccc2O1 | 1.06 ± 0.15 |
| COC(=O)C[C@@H]1CC[C@H]2[C@@H](COc3ccc(NC(=O)c4ccc(C(F)(F)F)cc4)cc3C(=O)N2C)O1 | 1.13 ± 0.08 |
| CC(C)[C@H]1COCc2cnnn2CCC[C@H](C)C(=O)N1 | 1.08 ± 0.11 |
| O=C1CCC(=O)N[C@@H](c2ccc(F)cc2)C/C=C\C[C@H](c2ccc(F)cc2)N1 | 1.02 ± 0.011 |
| COc1ccc2c3c([C@H](CO)N(C)C[C@]33CN(CC4CC4)C3)n(C)c2c1 | 1.03 ± 0.06 |
| CN1c2ccc(-c3ccccc3)cc2[C@H]2[C@H](CCN2C(=O)NC2CCCCC2)[C@@H]1CO | 0.976 ± 0.067 |
| COc1ccccc1C(=O)Nc1ccc2c(c1)C(=O)N(C)C[C@H](OC)[C@@H](C)CN(C(C)=O)[C@@H](C)CO2 | 1.02 ± 0.13 |
| O=C([C@@H]1[C@@H](CO)[C@@H]2Cn3c(ccc(C4=CCCCC4)c3=O)[C@H]1N2)N1CCC(Cc2ccccc2)CC1 | 0.954 ± 0.053 |
| Cc1cccc(-c2ccc([C@@H]3[C@@H]4CN(C(=O)CN(C)C)C[C@H]3N4)cc2)c1 | 0.477 ± 0.045 |
| CCNC[C@@H]1[C@@H](c2ccccc2)[C@@H](CO)N1C(=O)Cc1ccccn1 | 1.0939 ± 0.0009 |
| C[C@@H](NC(=O)C[C@H]1C=C[C@H](NC(=O)c2cccnc2)[C@H](CO)O1)c1ccccc1 | 1 ± 0.063 |
| COc1ccc2c3c([nH]c2c1)[C@@H](CO)N(C[C@]31CCN(CC1)C(=O)c1ccccc1F)C(=O)Nc1ccc(F)cc1 | 0.948 ± 0.015 |
| Cc1nn(C)cc1NC(=O)C[C@H]1CC[C@@H]2[C@@H](COc3ccc(NC(=O)C4CCOCC4)cc3C(=O)N2C)O1 | 1.1 ± 0.017 |
| C[C@@H]1CN([C@@H](C)CO)C(=O)c2ccccc2-c2ccccc2CO[C@@H]1CN(C)Cc1ccc2c(c1)OCCN2C | 1 ± 0.14 |
| CCc1cnc(N2[C@H](C#N)[C@@H](c3ccccc3C3=CCCCC3)[C@@H]2CO)s1 | 1.15 ± 0.013 |
| C[C@@H]1CN([C@@H](C)CO)C(=O)c2cc(C3=CCCC3)cnc2O[C@H]1CN(C)C(=O)Nc1ccc(C(F)(F)F)cc1 | 0.972 ± 0.037 |
| CN(C)C(=O)c1ccc(-c2cccc(-c3nc(C(=O)NCc4ccccc4)cc4c3[C@@H](CCO)N([S@](=O)C(C)(C)C)C4)c2)cc1 | 0.905 ± 0.025 |
| Cc1noc(C)c1S(=O)(=O)Nc1ccc2c(c1)C(=O)N([C@@H](C)CO)C[C@H](C)[C@H](CN(C)Cc1ccc(C(=O)O)cc1)OCCCC[C@H](C)O2 | 1.14 ± 0.051 |
| C[C@@H]1CN([C@@H](C)CO)C(=O)CCCn2cc(nn2)CO[C@@H]1CN(C)S(=O)(=O)c1cn(C)cn1 | 1.07 ± 0.062 |
| CC(=O)N1CC2(C1)[C@H](c1ccccc1)[C@@H](CO)N2Cc1ccccc1 | 1.08 ± 0.047 |
| Cc1noc(C)c1S(=O)(=O)N(C)C[C@@H]1Oc2c(NC(=O)c3ccc(-c4nccs4)cc3)cccc2C(=O)N([C@@H](C)CO)C[C@@H]1C | 0.955 ± 0.036 |
| C[C@H]1CNC(=O)[C@@H](Cc2ccc(C(F)(F)F)cc2)CCn2nncc2COC1 | 1.03 ± 0.018 |
| COc1ccccc1CNC(=O)C[C@@H]1CC[C@H]2[C@@H](COc3ccc(NC(C)=O)cc3C(=O)N2C)O1 | 0.974 ± 0.031 |
